Experimental data taken from the supplement of paper PMC10126150.
Sequences with one replicate were seen in a single cluster, so their values are uncertain.

Tested on: ATP
Assay: switch fluorescence ratio, 500 uM ATP over buffer (Cy3 cluster intensity, sum of 5 cycles each) (fold (ratio)); higher = stronger signal-on switching upon ATP binding; sequences stand for … in TCGTCGGCAGCGTCAGATGTGTATAAGAGACAGTTTTTTTTTTTTTTTTTTTTTTTTT…TC
Settings: aptamer strand: ATP DNA aptamer (quencher-CACCTGGGGGAGTATTGCGGAGGAAGG + anchor), 100 nM annealed; ATP concentration: 500 uM; one replicate
Procedure, shortened: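 Between each of five buffer/ATP cycles, the flow-cell was stripped with NaOH and re-annealed. Each cycle imaged Cy3-labelled switching-strand clusters, annealed to 100 nM quencher-labelled ATP aptamer on a modified Illumina MiSeq flow-cell, first in selection buffer and then after 15 min with 500 uM ATP at 22 °C. The fluorescence ratio is summed target-cycle over summed buffer-cycle Cy3 intensity per cluster, averaged per switch-domain sequence, with clusters outside 100-1000 RFU excluded.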
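Also: ATP exposure 15 min at 22 °C before imaging.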

Sequence	switch fluorescence ratio
ATGTAGGTGC	1.05
ATGTATGTG	0.962
ATGTATTTCT	1.05
ATGTCAAATG	0.986
ATGTCATTCG	1.03
ATGTCCGATG	1.01
ATGTCGAGCC	1.05
ATGTCGCGGT	1.01
ATGTCGTTGC	1.03
ATGTCTGGGG	0.989
ATGTGATCCG	1.05
ATGTGATCGA	0.961
ATGTGCAGAA	0.987
ATGTGCGCTC	1.01
ATGTGGTACG	1.02
ATGTGTTCAA	0.999
ATGTTACTCT	1
ATGTTCATAG	1.02
ATGTTCGCAG	1
ATGTTCTGGT	0.942
ATGTTGATTA	0.992
ATGTTGCGCG	1.05
ATGTTTATGT	1.1
ATGTTTTGGC	0.953
ATTAAAAAT	1.36
ATTAAAACAG	1.04

Sequence	switch fluorescence ratio
ATTAAACCGA	1.3
ATTAAACTAC	1.12
ATTAAAGAAT	0.994
ATTAAAGTCC	0.962
ATTAAATGTT	0.967
ATTAACCTTG	1.02
ATTAAGGCCA	0.999
ATTAAGGTGA	1.01
ATTAAGTCAC	1.11
ATTAATGAGA	0.984
ATTACATGGC	0.952
ATTACATGTT	0.981
ATTACCAGCG	1.02
ATTACCATGC	1.12
ATTACCCCCG	1.38
ATTACGCAAA	2.43
ATTACGGCTA	1.08
ATTACGTCGT	1.01
ATTACTCATT	1.01
ATTACTGCCC	1.04
ATTACTGGGT	0.968
ATTAGAAAAC	0.982
ATTAGACGGT	1.36
ATTAGCACGA	1.06
ATTAGCGTTG	1.02
ATTAGCTGGA	0.917

Sequence	switch fluorescence ratio
ATTAGGCTGT	0.984
ATTAGGTTGT	0.979
ATTAGTCTCG	1.05
ATTAGTGCAG	1
ATTAGTTTCT	0.974
ATTATAAGTC	1.04
ATTATACGCG	1.04
ATTATATTG	1.02
ATTATCCTGC	1.02
ATTATCGACC	1.04
ATTATGAGG	1.02
ATTATGGCGG	0.967
ATTATGTAAC	0.997
ATTATTCAAG	1.02
ATTATTGAGT	0.994
ATTATTGCGG	1.01
ATTATTTCC	1.07
ATTCAAACAT	1.04
ATTCACAGGA	1.05
ATTCACGGCA	1.18
ATTCAGCTGC	1.02
ATTCAGGATA	0.989
ATTCAGTTCC	1.08
ATTCCCAGCC	1.06
ATTCCCTGAA	1.05
ATTCCGAGCT	1.9

Sequence	switch fluorescence ratio
ATTCCGTAGG	1.02
ATTCCGTATG	1.06
ATTCCTCAAC	1.35
ATTCCTCATA	1.05
ATTCGAGCGG	1.02
ATTCGAGTAC	1.03
ATTCGCAGGT	1.1
ATTCGCATTT	1.16
ATTCGCCTTT	0.985
ATTCGCTATT	1.01
ATTCGCTGGG	1.38
ATTCGGTTCG	1.03
ATTCGTGTC	0.97
ATTCGTGTGG	1.05
ATTCTAAAGC	1.05
ATTCTGGAG	1.08
ATTGAACCCG	1
ATTGAAGAAA	0.98
ATTGACAG	1.02
ATTGACCAGG	1.02
ATTGACCCGT	1.05
ATTGACCGAG	1
ATTGACCTCG	1.01
ATTGACCTGG	0.955
ATTGACGA	1.01
ATTGAGCTCT	1

Sequence	switch fluorescence ratio
ATTGATGAGA	1.02
ATTGATTATC	0.973
ATTGATTCAC	1.02
ATTGATTCAT	0.985
ATTGATTCTA	0.987
ATTGCAAGCC	1.41
ATTGCATATT	1.01
ATTGCCCCCA	1.04
ATTGCCGAAT	0.981
ATTGCCGTGG	0.965
ATTGCCTACT	0.936
ATTGCGTACC	1
ATTGCTCAC	0.977
ATTGCTGACA	0.995
ATTGCTTTTA	1.01
ATTGGAGGT	1
ATTGGATCCT	1.01
ATTGGATGG	1.03
ATTGGCCTAC	1
ATTGGCGTCG	1
ATTGGCGTGT	1.02
ATTGGCTTGA	1.04
ATTGGGACAC	1
ATTGGGCGTG	1
ATTGGGGTCT	1.07
ATTGGGGTTA	1.01

Sequence	switch fluorescence ratio
ATTGGGTCTT	0.992
ATTGGGTGTA	1.02
ATTGGGTTC	1.03
ATTGGTAACT	1.01
ATTGGTATG	0.977
ATTGGTCCTA	1.01
ATTGGTCTTT	0.978
ATTGGTTCAG	1.01
ATTGGTTTG	0.976
ATTGTCCACG	0.994
ATTGTGATGG	0.999
ATTGTTATTC	1.01
ATTGTTCATG	1.02
ATTGTTCCTG	0.987
ATTTAAAACA	1.04
ATTTAACCTT	1.04
ATTTAAGAGC	0.975
ATTTACAGTA	1.07
ATTTAGAGAC	1.01
ATTTAGAGCC	0.945
ATTTAGAGCG	0.979
ATTTAGCACC	1.06
ATTTAGTTAC	1
ATTTATCAGC	1.1
ATTTATGCTA	1.01
ATTTATTCCA	0.999

Sequence	switch fluorescence ratio
ATTTCAGTTA	0.998
ATTTCCTTGG	1.01
ATTTCGCTGC	1.2
ATTTCGGTTA	1.02
ATTTCGTTAT	1.06
ATTTCTATAC	0.995
ATTTCTGATC	0.944
ATTTGATGC	0.985
ATTTGATTTT	1
ATTTGGGGG	0.962
ATTTGTTTGC	1.04
ATTTGTTTGT	0.994
ATTTTAATAC	1.18
ATTTTATAAT	1.06
ATTTTATAGA	0.997
ATTTTATATC	1.02
ATTTTCAGTC	0.961
ATTTTCCGAC	1.53
ATTTTGACA	0.989
ATTTTGAT	0.988
ATTTTGGAAG	0.956
ATTTTTATGC	0.959
ATTTTTCGCC	1
ATTTTTGCG	0.998
ATTTTTTGC	0.945
CAAAACATCT	0.985

Sequence	switch fluorescence ratio
CAAAACGAC	1.08
CAAAACGTAA	1.09
CAAAACTCGG	0.992
CAAAAGGTGT	1.15
CAAAAGTAGG	1.02
CAAAATGTTT	1
CAAAATTTAC	1.19
CAAACGCTGA	1.95
CAAACGTCGG	1.02
CAAACTCAGG	1.11
CAAACTCCTG	1.05
CAAAGCAGCT	1
CAAAGCTCTT	1
CAAAGGAAAG	1
CAAAGGGTTG	0.983
CAAAGGGTTT	0.947
CAAAGGTTAC	0.984
CAAAGTATGG	0.967
CAAAGTTCGT	0.998
